Reference: PubChem BioAssay AID686979 (National Center for Advancing Translational Sciences (NCATS), 2013)
Several values for one entry are separate records, joined by “and”; a condition that tells them apart may be missing. Equal entries are not always repeated. The whole screen tested about 420,000 compounds, of which about 50,000 (12%) were called active. The inconclusive results got no clear call from the source; some entries with a clear call stand among them for comparison. The call rests on the fitted dose curve; in most records, active means well fitted inhibition curve with a large enough effect; inconclusive means small, poorly fitted or top-dose-only effect; inactive means flat fitted curve, though single readings scatter. Potencies beside an inconclusive call are fits to weak or partial responses and may not hold up. Where a SMILES comes first, the peptide text is derived from it. [ ]: non-standard residue; d: D form. The star is where a group is joined. Ac5c = NC1(C(=O)O)CCCC1; Cbz = O=C(OCc1ccccc1)*

Test: qHTS for Inhibitors of human tyrosyl-DNA phosphodiesterase 1 (TDP1): qHTS in cells in presence of CPT; further: nearly all actives have a fitted effect of over 55% in size
Conditions: chicken DT40 Tdp1-/-;hTDP1 cells + 20 nM CPT, ATP luminescence, 48 h; activity change, negative = growth inhibition: at 46.2 µM (top of the series) unless noted
How it was run: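 Chicken DT40 Tdp1-/- cells stably complemented with human TDP1 were seeded at 400 cells/well in medium containing 20 nM camptothecin, exposed to pin-transferred compounds, and grown at 37 °C for at least 48 hr. Viability was read as ATP luminescence.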
On the % scale 0 is the no-effect control and ±100 the full control effect; potency means the concentration at half of the fitted maximal effect; tags describe the fitted curve by direction and shape.

Compound	activity change, negative = growth inhibition	Potency
CCc1cccc(CC)c1NC(=O)Cn1c(-c2ccc(F)cc2)noc1=O	inactive: 2.53%	–
CCOC(=O)C1=CCN(S(=O)(=O)c2ccc(C)cc2)C1c1ccc(C)cc1 (stereo not drawn)	–	inconclusive: 16.4 µM [inhibitor, single point]
Cc1ccc(/C=C/C(=O)Nc2ccc([N+](=O)[O-])cc2)o1	–	inconclusive: 11.6 µM [inhibitor, partial curve]
Cc1ccc(S(=O)(=O)N2CCC(C(=O)N/N=C/c3ccncc3)CC2)cc1	inactive: 1.28%	–
O=C(Nc1ccccn1)C(c1ccccc1)c1ccccc1	–	active: 14.6 µM
O=C(CCc1ccc(S(=O)(=O)N2CCOCC2)cc1)Nc1c(F)cccc1F	inactive: -16.7%	–
COC(=O)C1=C(C)N(CCC2=CCCCC2)C(=O)C1	–	inconclusive: 25.9 µM [inhibitor, single point]
Cc1ccc(CNc2ncc(-c3ccc4c(c3)OCO4)n2C)cc1	–	inconclusive: 20.6 µM [inhibitor, single point]
CN(C)c1ccc(-c2ccc([C@H]3[C@@H]4C=CCC[C@@]4(C)C(=O)N3Cc3ccccc3)c(F)c2)cc1	–	active: 23.1 µM
O=C(NCc1cccc(C(F)(F)F)c1)c1csc([C@H]2C[C@H](O)[C@@H](CO)O2)n1	inactive: -9.25%	–
CCOC(=O)c1[nH]c(C)c(C(=O)N2CCN(c3ccccc3OC)CC2)c1C	–	inconclusive: 23.1 µM [inhibitor, single point]
O=C(NC1CCCCC1)/C(=C/c1ccc(Cl)cc1)NC(=O)c1ccccc1	–	inconclusive: 29.1 µM [inhibitor, single point]
C=CCn1c(C)cc(C2=NNC(=Nc3ccc(C)cc3)SC2)c1C	–	inconclusive: 29.1 µM [inhibitor, single point]
Cc1cc(C)nc(Nc2nc(=O)c3ccccc3s2)n1	–	inconclusive: 29.1 µM [inhibitor, single point]
Nc1ccccc1C(=O)NNc1c2ccccc2nc2ccccc12	–	inconclusive: 25.9 µM [inhibitor, single point]
Cc1ccc(C(=O)CSc2nnc3ccc4ccccc4n23)cc1	–	inconclusive: 29.1 µM [inhibitor, single point]
Cc1cc(C(=O)C[N+]2(C)CCOCC2)c(C)n1-c1ccc(Br)cc1	–	inconclusive: 29.1 µM [inhibitor, single point]
CC(=O)c1cccc(NS(=O)(=O)c2ccc(NC(=O)N3CCCCC3)cc2)c1	–	active: 5.17 µM
CC(C)c1ccccc1NC(=O)COC(=O)c1c2c(nc3ccccc13)CCN(Cc1ccccc1)C2	–	inconclusive: 18.4 µM [inhibitor, single point]
CCCCSc1nnc(-c2ccccc2N)c(=O)[nH]1	–	inconclusive: 13 µM [inhibitor, partial curve, poor fit]
O=C(O)CNC(=O)C1(NC(=O)OCc2ccccc2)CCCC1 (Cbz-[Ac5c]-Gly-OH)	inconclusive: -6.71% [inhibitor]	–
O=C(O)c1ccc(-c2nc(-c3cccc(C(F)(F)F)c3)cs2)cc1	–	inconclusive: 0.291 µM [inhibitor, partial curve]
CCCCCCC(=O)Nc1nc(C)c(-c2csc(Nc3cc(OC)ccc3OC)n2)s1	–	inconclusive: 20.6 µM [inhibitor, single point]

Compound	activity change, negative = growth inhibition	Potency
Cc1cccc(N2CCN(C(=O)C3CC(=O)N(C4CCCC4)C3)CC2)c1C (stereo not drawn)	–	active: 18.4 µM
COc1ccc(/C=N/NC(=O)c2cc(-c3ccccc3)nc3ccccc23)c(OC)c1	–	active: 14.6 µM
COc1ccc(NC(=O)N2CCN(c3ccc([N+](=O)[O-])cc3)CC2)cc1	–	active: 2.31 µM
CCC(=O)N1c2ccc(S(=O)(=O)N3CCN(c4ccccc4Cl)CC3)cc2CC1C (stereo not drawn)	–	inconclusive: 23.1 µM [inhibitor, single point] and inconclusive: 29.1 µM [inhibitor, single point]
COc1ccccc1-c1nc(C#N)c(N2CCN(c3cccc(Cl)c3)CC2)o1	–	inconclusive: 11.6 µM [inhibitor, partial curve]
CC1CCN(CC(=O)N2c3ccccc3CCc3ccccc32)CC1	–	inconclusive: 18.4 µM [inhibitor, single point]
NC(c1csc(NC(=O)Nc2ccccc2)n1)C1CCCCC1 (stereo not drawn)	–	inconclusive: 20.6 µM [inhibitor, single point]
C=CCN(Cc1cc(OC)ccc1OC)C(=O)c1cc2ccc(OC)cc2[nH]1	–	inconclusive: 29.1 µM [inhibitor, single point]
CCO[C@H]1OC(C(=O)NCc2nc3ccccc3[nH]2)=C[C@@H](c2ccc(Br)cc2)[C@@H]1CCCO	–	inconclusive: 29.1 µM [inhibitor, single point]
Cc1cccc(N(C)c2nc3ccc(C)cc3n3nnnc23)c1	–	inconclusive: 29.1 µM [inhibitor, single point]
S=c1nc(C2CC2)[nH]c2ccccc12	–	inconclusive: 23.1 µM [inhibitor, single point]
CCOC(=O)C1CCCN(S(=O)(=O)c2cc(-c3cc(C)no3)ccc2C)C1 (stereo not drawn)	–	inconclusive: 25.9 µM [inhibitor, single point]
CCCOc1ccc(C2C(=O)N(C3CCCCC3)CC(=O)N2CCCOCC)cc1OC (stereo not drawn)	inconclusive: -30.2% [inhibitor]	–
CC1=C(C(=O)Nc2ccccc2F)C(c2ccsc2)C2=C(CC(C)(C)CC2=O)N1 (stereo not drawn)	–	inconclusive: 25.9 µM [inhibitor, single point]
COC(=O)c1ccc(OCC2NCCc3cc(OC)c(OC)cc32)cc1 (stereo not drawn)	–	inconclusive: 16.4 µM [inhibitor, single point]
CCSc1nc2c(c(=O)n1Cc1ccccc1)SC(C)C2 (stereo not drawn)	–	active: 11.6 µM
Cc1ccc(-c2nnn(CC(=O)N(CC(=O)NC3CCCC3)c3ccc(F)c(Cl)c3)n2)o1	–	inconclusive: 18.4 µM [inhibitor, single point]
COC(=O)Cc1nc2ccccc2[nH]1	–	inconclusive: 9.2 µM [inhibitor, partial curve, poor fit]
Cc1ccc(CNC(=O)C2CCN(c3ncnc4c3nc3n4CCCCC3)CC2)cc1	inactive: 12.2%	–
CCN(CC)S(=O)(=O)c1ccc2c(c1)c(=O)c(C(=O)NCc1ccco1)cn2C	–	inconclusive: 23.1 µM [inhibitor, single point]
O=S(=O)(c1ccc(S(=O)(=O)N2CCN(C/C=C/c3ccccc3)CC2)cc1)N1CCCC1	–	inconclusive: 18.4 µM [inhibitor, single point]
O=c1[nH]c2ccccc2nc1/C=C/c1ccc(O)cc1	–	inconclusive: 29.1 µM [inhibitor, single point]
COc1ccccc1N1CCN(c2nc(CNC(=O)c3ccccc3F)nc3ccccc23)CC1	–	inconclusive: 5.17 µM [inhibitor, single point]

Compound	activity change, negative = growth inhibition	Potency
CC(=O)NNc1nc(-c2ccccc2)cs1	–	active: 20.6 µM
O=C(Cc1ccc(F)cc1)Nc1ccccc1N1CCCC1	–	inconclusive: 25.9 µM [inhibitor, single point]
CCOC(=O)N1CCN(C(=O)CSc2ccc(C(=O)OC)cc2[N+](=O)[O-])CC1	inactive: -27.2%	–
CC(=O)Nc1ccc(NC(=O)c2cccc(S(=O)(=O)N3CCCCCC3)c2)cc1	–	inconclusive: 29.1 µM [inhibitor, single point]
C=CCCC(=O)Nc1nc(C)c(-c2csc(Nc3cc(OC)ccc3OC)n2)s1	–	active: 2.59 µM
Cn1c(=O)c2cc(S(=O)(=O)Nc3ccc4c(c3)OCO4)ccc2n(C)c1=O	–	active: 2.06 µM
Brc1ccc(-c2csc(N3CCOCC3)n2)cc1	–	inconclusive: 23.1 µM [inhibitor, single point]
Cc1ccc2[nH]c3c(NCc4ccco4)ncnc3c2c1	–	active: 23.1 µM
CCOC(=O)C(C)/C(C)=N\Nc1ccc([N+](=O)[O-])cc1[N+](=O)[O-] (stereo not drawn)	–	inconclusive: 16.4 µM [inhibitor, single point]
COc1cc(OC)c(NC(=S)NCc2ccccc2)cc1Cl	inactive: -7.97%	–
Cc1ccccc1CNC(=O)c1ccc2c(c1)N(Cc1ccccc1)CCS2	–	inconclusive: 29.1 µM [inhibitor, single point]
CCN(CC)CCn1c(NCc2cc(OC)ccc2OC)nc2ccccc21	–	inconclusive: 18.4 µM [inhibitor, single point]
CN(C(=O)COC(=O)C1(C)CC1(Cl)Cl)c1c(N)n(Cc2ccccc2)c(=O)[nH]c1=O (stereo not drawn)	inactive: -17.5%	–
Cc1cccc(C)c1Nc1c(-c2ccccc2O)nc2ncccn12	–	active: 20.6 µM
COc1ccc(CNC(=O)C2CC(c3ccc(OC)cc3)=NO2)cc1 (stereo not drawn)	–	inconclusive: 29.1 µM [inhibitor, single point]
COc1cc(C(=O)O)c2c(c1C)OC(=O)c1c(C)cc(O)c(C=O)c1O2	inactive: 24.2%	–
O=C1c2ccccc2S(=O)(=O)c2cc(N3CCC(C(=O)N4CCCCC4)CC3)ccc21	–	active: 20.6 µM
COc1cc(OC)cc(OCC(O)Cn2cnc3cc(C)c(C)cc32)c1 (stereo not drawn)	–	inconclusive: 29.1 µM [inhibitor, single point]
Cc1ccccc1CN(c1ccc(C(=O)N2CCc3ccccc3C2)cc1)S(C)(=O)=O	–	active: 11.6 µM
C[C@@H]1[C@@H](Sc2ccccc2)CC(=O)O[C@@H]1c1ccc(-c2ccccc2)cc1	–	active: 8.2 µM
CC(C)(O)CCc1c(-c2ccc(O)cc2O)oc2c3c(cc(O)c2c1=O)OC(C)(C)C=C3	–	active: 11.6 µM
c1ccc(-c2ccc(-c3ccccc3)[nH]2)cc1	–	inconclusive: 20.6 µM [inhibitor, single point]
